According to PubChem BioAssay AID504466 (National Center for Advancing Translational Sciences (NCATS), 2011):
The campaign covered roughly 330,000 compounds. About 4,200 (1.3%) were called active. Inconclusive results, whose numbers are uncertain, are shown with a selection of clear calls. Calls follow the shape of the dose curve; as a rule, active = well fitted activation curve with a large enough effect; inconclusive = small, poorly fitted or top-dose-only effect; inactive = no such curve, though single readings can be large or run the other way. Potencies of inconclusive entries are doubtful fits and often do not repeat.

Assay: qHTS screen for small molecules that induce genotoxicity in human embryonic kidney (HEK293T) cells expressing luciferase-tagged ELG1; also: nearly all actives have a fitted effect of over 60% in size
Details: HEK293T ELG1-luciferase reporter, luminescence, 16 h; series mostly up to 46 µM
In short: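 Step 1: seed 2,000 HEK293T ELG1-luciferase cells per well. Step 2: add compound or DMSO, incubate 16 hr at 37 °C. Step 3: ONE-Glo, 30 min at room temperature, read luminescence.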
Potency is read from the fitted curve at half-maximal effect; tags tell the direction and shape of the fitted curve.

Compound	Potency
O=C(Nc1ccccc1Cl)N1CCCN(c2nc(-c3ccccc3)ns2)CC1	inactive
CCc1ccccc1NC(=O)c1ccc(-c2csc(C)n2)cc1	inconclusive: 11.6 µM [activator, partial curve]
COc1ccc(-n2c(C)cc(/C=C3\SC(=O)NC3=O)c2C)cc1	inconclusive: 16.4 µM [activator, partial curve, poor fit]
CCOC(=O)N1CCC(Nc2nc3ccccc3nc2NS(=O)(=O)c2ccc(Cl)cc2)CC1	inconclusive: 25.9 µM [activator, partial curve, poor fit]
CCCn1c(SCC(=O)NC)nc2sc3c(c2c1=O)CCC3	inconclusive: 5.17 µM [activator, single point]
Cc1cc(Nc2nc3ccccc3nc2Cl)n(-c2ccccc2)n1	inconclusive: 25.9 µM [activator, single point]
Cc1ccc(S(=O)(=O)c2cn(C)c3cc(N4CCN(C)CC4)c(F)cc3c2=O)c(C)c1	inconclusive: 25.9 µM [activator, single point]
Cc1cc(OC(=O)c2ccccc2Br)c([N+](=O)[O-])c(=O)[nH]1	inactive
O=C(N/N=C/c1ccsc1)c1ccccn1	inconclusive: 2.91 µM [activator, full curve]
CCC(C)(C)c1ccc(OC(=O)c2cccnc2Cl)cc1	inconclusive: 20.6 µM [activator, single point]
CC(=O)Nc1cc(-c2nc3ccccc3o2)ccc1Cl	inconclusive: 20.6 µM [activator, partial curve, poor fit]
COc1cc2ccccc2cc1C(=O)Nc1ccccc1C	inconclusive: 5.17 µM [activator, partial curve, poor fit]
Cc1ccc(-c2csc3nc(=O)c(C)nn23)cc1	inactive
CC(=O)c1ccc(Nc2ccc(-c3ccccc3F)nn2)cc1	inconclusive: 2.59 µM [activator, partial curve]
O=C(N/N=C/C(Br)=C\c1ccccc1)c1ccco1	inconclusive: 18.3 µM [activator, partial curve]
Cc1ccc(-c2nnc(N(C)C(=O)c3ccccn3)s2)cn1	inconclusive: 29.1 µM [activator, single point]
CCCn1c(C)cc(C(=O)COC(=O)c2nccnc2N)c1C	inconclusive: 2.31 µM [activator, partial curve]
CC(O)Cn1c(N2CCCC2)nc2c1c(=O)n(C)c(=O)n2C (configuration not stated)	inactive
COc1ccc(N2CCOCC2)c(NC(=O)COc2cccc(C)c2C)c1	inconclusive: 20.6 µM [activator, single point]
CCOc1ccc(N=Nc2c(=O)[nH]n3c(=O)cc(C)[nH]c23)cc1	inconclusive: 20.6 µM [activator, single point]
NC(=O)c1ccccc1NC(=O)CSc1nc2c(c(=O)[nH]1)CCCC2	inactive
COc1cccc(C(=O)Nc2cc3c(cc2Cl)OCCCO3)c1	inconclusive: 13 µM [activator, partial curve]
COc1cccc(/C=C(/CC(=O)Nc2ccc(N3CCOCC3)cc2)c2nc3ccccc3s2)c1	inconclusive: 23.1 µM [activator, partial curve, poor fit]
CC1(OC(=O)C2CCCC2)C(=O)C=C2C=C(c3ccsc3)N(C(CO)CO)C=C2C1=O (configuration not stated)	inactive

Compound	Potency
Clc1ccc(-c2csc(N3CCSCC3)n2)cc1	inconclusive: 23.1 µM [activator, partial curve, poor fit]
CC(=O)Nc1cccc(NC(=O)COc2ccc3c(c2)CCC3)c1	inactive
Cc1nnc2n1N=C(c1ccc3c(c1)NC(=O)CO3)CS2	inconclusive: 29.1 µM [activator, partial curve, poor fit]
Cc1ccc(NC(=O)N2CCc3ccccc32)cc1C	active: 0.651 µM
O=C1NC(=S)N(C(=O)c2ccc(F)cc2)/C1=C/c1ccccc1	inactive
Cc1cc(C)c2nc(N)sc2c1	inconclusive: 18.4 µM [activator, single point]
CSc1nccc(N/N=C/c2ccccc2)n1	inconclusive: 4.11 µM [activator, full curve]
Fc1ccc2nc(Nc3nc4c(F)cccc4s3)sc2c1	inactive
O=C(NCCC1=CCCCC1)c1cnccn1	active: 14.6 µM
Cc1ccc(-n2c(C)c3c(C)nnc(C)c3c2C)cc1N	inactive
Cc1ccc(NC(=O)c2cc(-c3ccc4c(c3)OCO4)on2)cc1C	inconclusive: 20.6 µM [activator, partial curve, poor fit]
N#Cc1cc2c(nc1SCc1ccncc1)CCC2	inconclusive: 18.4 µM [activator, partial curve]
CCOC(=O)c1c(C)[nH]c(N=Nc2ccc(OC)cc2)c1C	inconclusive: 7.3 µM [activator, partial curve, poor fit]
CCc1ccccc1NC(=S)/N=C(\N)Nc1nc(C)c2cc(C)ccc2n1	inactive
COC(=O)c1cccc(NC(=O)C2COc3ccccc3O2)c1 (configuration not stated)	active: 18.4 µM
O=C1Nc2ccc(S(=O)(=O)NCC3CCCO3)c3cccc1c23 (configuration not stated)	inactive
O=C(COc1cccc(C(F)(F)F)c1)NCC(c1cccs1)N1CCOCC1 (configuration not stated)	inactive
CC(C)OCCCNC(=O)c1ccc2c(=O)n(Cc3ccc4c(c3)OCO4)c(=S)[nH]c2c1	inconclusive: 6.51 µM [activator, single point]
Nc1nn2cc(-c3ccc(Br)cc3)nc2c2ccccc12	inconclusive: 9.2 µM [activator, partial curve, poor fit]
CCOC(=O)c1ccc(NC(=O)NCc2cccnc2)cc1	inactive
O=C(Nc1scc(-c2ccc(F)cc2)c1C(=O)O)c1ccco1	inconclusive: 14.6 µM [activator, partial curve]
COCCN1CCN(C(=O)c2ccc3oc(CCc4ccccc4)nc3c2)CC1	inconclusive: 32.6 µM [activator, partial curve, poor fit]
COC(=O)c1c(-c2cccnc2)csc1NC(=O)c1cc(C)on1	inconclusive: 3.66 µM [activator, full curve]
